Reference: PubChem BioAssay AID2675 (National Center for Advancing Translational Sciences (NCATS), 2010)
Among all 280,000 compounds or so, about 100 (0.036%) were called active. The shares of active, inactive and inconclusive entries below differ from those in the screen. Calls follow the shape of the dose curve; as a rule, active = well fitted inhibition curve with a large enough effect in the signal ratio, with a control signal flat (not every such curve was filed as active); inconclusive = small, poorly fitted or top-dose-only effect, or effect the other way, or a change in a side signal; inactive = no such curve, though single readings can be large or run the other way; the % refers to the signal ratio. Potencies beside an inconclusive call are fits to weak or partial responses and may not hold up. “Side channel” marks fits to a control or component signal instead of the main read-out.

The compounds below were run against Muscleblind-like protein 1 (Homo sapiens) (UniProt Q9NR56) (assay: qHTS Assay for Inhibitors of MBNL1-poly(CUG) RNA binding). Details: TR-FRET MBNL1-His/biotin-(CUG)12 binding, 665/545 ratio; activity change, negative = inhibition: at 57.5 µM (top of the series).
Chain of UniProt Q9NR56 (Q9NR56 whole entry, looked up): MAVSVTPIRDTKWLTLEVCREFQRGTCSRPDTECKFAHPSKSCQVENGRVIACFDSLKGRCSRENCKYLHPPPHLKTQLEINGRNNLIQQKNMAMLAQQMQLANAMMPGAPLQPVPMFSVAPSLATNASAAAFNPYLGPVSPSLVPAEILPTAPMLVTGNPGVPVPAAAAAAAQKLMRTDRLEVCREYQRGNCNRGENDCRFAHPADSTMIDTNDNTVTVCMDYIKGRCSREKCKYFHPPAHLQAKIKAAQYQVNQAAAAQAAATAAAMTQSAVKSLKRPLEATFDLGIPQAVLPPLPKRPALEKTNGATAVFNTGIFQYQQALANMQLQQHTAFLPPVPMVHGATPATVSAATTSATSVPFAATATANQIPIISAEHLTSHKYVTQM
Procedure, shortened: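 Inhibition of protein-RNA binding appears as loss of TR-FRET between terbium anti-His antibody on MBNL1-His and streptavidin-XL665 on biotin-(CUG)12. Activity is normalized to buffer-only and uninhibited-complex controls.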
% is scaled to controls: 0 for no effect and ±100 for the full control effect; potency is read from the fitted curve at half-maximal effect; tags tell the direction and shape of the fitted curve or compound fluorescence and quenching.

SMILES | Potency | activity change, negative = inhibition
O=C(CN1CC[n+]2c(-c3cccs3)csc21)c1ccc(-c2ccccc2)cc1 | inconclusive: 25.1 µM [quencher, side channel, single point] | –
CSCCC(NC(=O)c1ccc([N+](=O)[O-])cc1Cl)C(=O)OCC(=O)NCC(F)(F)F (stereo unspecified) | inconclusive: 14.1 µM [quencher, partial curve] | –
COc1ccccc1C(CNc1ccc(S(=O)(=O)N2CCCC2)cc1[N+](=O)[O-])N(C)C (stereo unspecified) | inconclusive: 14.1 µM [quencher, side channel, partial curve] | –
Cc1ccc(NC(=O)CN2C(=O)NC(C)(c3ccccc3)C2=O)c(C)c1 (stereo unspecified) | – | inactive: -0.204%
CS(=O)(=O)N1CCN(c2ccc([N+](=O)[O-])c(NCCN3CCOCC3)c2)CC1 | inconclusive: 15.8 µM [quencher, side channel, partial curve] | –
COc1ccc(NC(=S)NCCc2ccccc2)c(C)c1 | – | inactive: 10.7%
COc1ccc(NC(=O)CNS(=O)(=O)c2cccc3nonc23)c(OC)c1 | inconclusive: 15.8 µM [quencher, side channel, partial curve] | –
O=C(C[n+]1ccc(/C=C/c2ccccc2)cc1)c1ccc2c(c1)OCCO2 | inconclusive: 17.8 µM [quencher, side channel, partial curve] | –
O=[N+]([O-])c1cccc(S(=O)(=O)NCc2ccccn2)c1 | inconclusive: 10 µM [quencher, side channel, partial curve] | –
CCSCCOC(=O)C1=C(C)NC2=C(C(=O)CCC2)C1c1coc2ccccc2c1=O (stereo unspecified) | inconclusive: 126 µM [inhibitor, partial curve] | –
COc1ccc2c3c(cccc13)OCC2=O | inconclusive: 20 µM [quencher, side channel, single point] | –
Cc1ccccc1CN1CCC(n2nccc2NC(=O)c2ccc3c(c2)OCO3)CC1 | inconclusive: 39.8 µM [quencher, side channel, single point] | –
O=C(NCCO)/C(=C\c1cccc([N+](=O)[O-])c1)NC(=O)c1ccco1 | inconclusive: 14.1 µM [quencher, side channel, partial curve] | –
CCCC(=O)N(c1ccc(F)cc1)C1C=CS(=O)(=O)C1 (stereo unspecified) | inconclusive: 0.794 µM [fluorescent, single point] | –
Cc1ccc(NC(=O)CSc2n[nH]c(-c3ccncc3)n2)cc1C | inconclusive: 79.4 µM [inhibitor, single point] | –
O=C(c1ccc(C(F)(F)F)cc1)C1CCCN(Cc2cccn2-c2ncccn2)C1 (stereo unspecified) | – | inactive: -2.92%
CN(C)c1ccnc2sc(C(N)=O)c(N)c12 | inconclusive: 20 µM [quencher, side channel, partial curve] | –
Cc1ccc(S(=O)(=O)N2CCCCC2)cc1NC(=O)COC(=O)Cc1ccc(Cl)cc1 | inconclusive: 0.282 µM [fluorescent, side channel, full curve] | –
CCOC(=O)C1=C(C)N(C)C(=O)NC1c1cc2c(cc1[N+](=O)[O-])OCO2 (stereo unspecified) | inconclusive: 17.8 µM [quencher, side channel, single point] | –
O=C(CN1CCN(C(=O)C2CCCO2)CC1)Nc1cc(Cl)ccc1Cl (stereo unspecified) | – | inactive: -7.75%
COc1ccc(CNc2ncc(-c3ccccc3)n2C)cc1 | inconclusive: 7.08 µM [quencher, side channel, full curve] | –

SMILES | Potency | activity change, negative = inhibition
O=c1[nH]c2ccccc2nc1Cc1ccccc1 | inconclusive: 11.2 µM [quencher, side channel, partial curve] | –
NC(=O)[C@@H]1CCCCNc2c(F)cc([N+](=O)[O-])cc2C(=O)N[C@@H](CC(=O)O)C(=O)NCC(=O)N1 | inconclusive: 15.8 µM [quencher, side channel, partial curve] | –
CC(=O)c1cc(NC(=O)c2ccc(C)cc2)c(=O)oc1/C=C/N(C)C | inconclusive: 10 µM [quencher, side channel, partial curve] | –
NS(=O)(=O)c1ccc(CCNC(=O)c2ccccc2[N+](=O)[O-])cc1 | inconclusive: 31.6 µM [quencher, side channel, single point] | –
c1ccc(Cn2c(CNc3nc4ccccc4n3CCN3CCOCC3)nc3ccccc32)cc1 | – | inactive: -17.1%
CCC(CO)Nc1ccc(-c2nn(C)c(=O)c3ccccc23)cc1[N+](=O)[O-] (stereo unspecified) | inconclusive: 7.08 µM [quencher, side channel, partial curve] | –
Cn1c(N)c(C(=O)Nc2ccc(-c3ccccc3)cc2)sc1=S | inconclusive: 39.8 µM [quencher, side channel, single point] | –
CN(C[C@H](Cc1ccccc1)N(CCN(CCc1ccccc1)N=O)N=O)N=O | – | inactive: -7.72%
O=C(CCN1CCC(c2cccs2)=N1)c1cccs1 | inconclusive: 25.1 µM [quencher, side channel, single point] | –
O=C(COc1ccccc1)Nc1nccs1 | inconclusive: 50.1 µM [inhibitor, single point] | –
COc1ccc(CNC(=O)Cn2cc(C(F)(F)F)ccc2=O)cc1 | inconclusive: 0.447 µM [fluorescent, side channel, partial curve, poor fit] | –
Cc1cc(C)c[n+](C2=C([O-])c3ccccc3C(=O)/C2=N\S(=O)(=O)c2cccs2)c1 | inconclusive: 2.82 µM [quencher, side channel, partial curve] | –
Cc1nn(C)cc1S(=O)(=O)NCc1ccccc1Cl | – | inactive: 4.83%
CCOC(=O)C1=C(CSc2nc(-c3ccccc3)ccc2C#N)OC(N)=C(C#N)C1c1cccnc1 (stereo unspecified) | inconclusive: 39.8 µM [quencher, single point] | –
COc1ccccc1CC(=O)Nc1ccc(Cl)cc1C(=O)O | inconclusive: 100 µM [inhibitor, partial curve] | –
COc1ccc(S(=O)(=O)/N=C2\C=C(Nc3ccc(O)cc3)C(=O)c3ccccc32)cc1 | inconclusive: 11.2 µM [quencher, side channel, partial curve] | –
CN1CCCC1CCNc1ccc2oc3ccccc3c(=O)c2c1 (stereo unspecified) | inconclusive: 10 µM [quencher, side channel, partial curve] | –
CCCOP(=O)(c1ccc(N(C)C)cc1)C(O)c1cccnc1 (stereo unspecified) | – | inactive: -11.7%
Cc1cc(C)cc(NC(=S)N2CCN(c3ccccn3)CC2)c1 | – | inactive: -4.63%
O=C(COc1ccc(Br)cc1)Nc1ccc([N+](=O)[O-])cn1 | inconclusive: 7.94 µM [quencher, side channel, partial curve] | –
O=C(/C=C/Nc1cccc([N+](=O)[O-])c1)c1cccs1 | inconclusive: 14.1 µM [quencher, side channel, partial curve] | –

SMILES | Potency | activity change, negative = inhibition
O=C(Nc1nc2n(n1)C(c1ccc(Cl)cc1)CC(c1ccc(Cl)cc1)N2)c1ccco1 (stereo unspecified) | inconclusive: 44.7 µM [quencher, side channel, single point] | –
Cc1cccc(C)c1NC(=O)CN(C)CC(=O)Nc1cc(Cl)ccc1C#N | – | inactive: -8.91%
O=C(c1cc(COc2ccc(F)c(F)c2)on1)N1CCN(C2CCCCC2)C(=O)C1 | – | inactive: -0.0632%
CC(=O)/C(N=Nc1c(C)n(C)n(-c2ccccc2)c1=O)=C(\C)O | inconclusive: 12.6 µM [quencher, side channel, partial curve] | –
CCCCCC(=O)Nc1cccc(C2=NOC3(C2)C[C@@H](C(N)=O)N(C(=O)c2cc([N+](=O)[O-])cc([N+](=O)[O-])c2C)C3)c1 (stereo partly specified) | inconclusive: 17.8 µM [quencher, partial curve] | –
CCOc1ccc(S(=O)(=O)c2c(C(=O)c3ccc(C)cc3)cnc3cc4c(cc23)OCCO4)cc1 | inconclusive: 31.6 µM [fluorescent, side channel, single point] | –
COc1cccc(-c2nc(CS(=O)(=O)CC(=O)Nc3c(C)cccc3C)c(C)o2)c1 | – | inactive: -0.729%
CC(C)[C@@H]1CC[C@@H](C)C[C@H]1OC(=O)C[n+]1cc(-c2ccc(Cl)cc2)n2c1CCCCC2 | – | inactive: -7.01%
CC(C)C(=O)Nc1ccc2nn(-c3ccccc3)nc2c1 | inconclusive: 22.4 µM [quencher, single point] | –
O=C1C(Cl)=C(N2CCOCC2)C(=O)N1c1ccccc1 | inconclusive: 17.8 µM [quencher, side channel, partial curve] | –
O=C(c1ccco1)N1CCN(c2ncnc3c2[nH]c2ccccc23)CC1 | inconclusive: 22.4 µM [quencher, side channel, partial curve] | –
O=[N+]([O-])c1ccccc1/C=C/C=N/n1c(-c2ccco2)n[nH]c1=S | inconclusive: 15.8 µM [quencher, side channel, partial curve] | –
CCOC(=O)C1=NN(C(=O)c2ccc(C)cc2)C(O)(c2ccc(Cl)cc2)C1 (stereo unspecified) | – | inactive: -2.97%
O=C(NNC(=O)c1ccccc1[N+](=O)[O-])c1ccccc1[N+](=O)[O-] | inconclusive: 31.6 µM [quencher, side channel, partial curve] | –
O=c1cc(-c2ccccc2)[nH]c2nc3ccccc3n12 | – | inactive: 10.8%
Nc1nc(SCC(=O)c2cc3ccccc3o2)n[nH]1 | inconclusive: 17.8 µM [quencher, side channel, partial curve, poor fit] | –
CC(C)c1nnc(NC(=O)c2nc(S(=O)(=O)Cc3ccccc3F)ncc2Cl)s1 | – | inactive: 15.4%
CCOc1ccc(-n2nnc3c(=O)n(CC(=O)Nc4cc(C)on4)cnc32)cc1 | – | inactive: -10.1%
Cc1c(C)[n+](=O)c(-c2ccc(Br)cc2)c(C)n1[O-] | inconclusive: 25.1 µM [quencher, side channel, partial curve] | –
